According to patent publication US20240342197A1, “LIMONENE EFFECTS ON TETRAHYDROCANNABINOL (THC)-INDUCED ANXIETY” (The Johns Hopkins University, priority 2021, published 2024):

Key:
human subject = experiment: Drug Effect Questionnaire VAS subjective ratings after vaporized THC, d-limonene and their combination; details: THC alone; N=16; FIG. 3
healthy adult volunteers = experiment: Previous studies of the dose effects of cannabis (10 mg and 25 mg THC) given by oral ingestion, smoking or vaporization
[1] = system: subjective effects of THC; details: in vivo; cited from earlier work

Compound | mean peak subjective ratings (change-from-baseline) for "anxious" (VAS) (human subject) | drug effects (healthy adult volunteers; 10-mg THC dose, vaporized cannabis) | anxiety (healthy adult volunteers; 25-mg THC dose, vaporized cannabis, FIG. 1) | safety of administration (healthy adult volunteers; vaporized cannabis containing THC doses of 10 mg and 25 mg) | modulatory effect on the subjective effects of THC [1]
CCCCCc1cc(O)c2c(c1)OC(C)(C)[C@@H]1CCC(C)=C[C@@H]21 [THC, (−)-trans-Δ^9-tetrahydrocannabinol] | reliably increased | mild to moderate drug effects | mild to moderate anxiety in a subset of subjects | could be safely administered | –
C=C(C)[C@@H]1CCC(C)=C[C@H]1c1c(O)cc(CCCCC)cc1O [CBD, cannabidiol] | – | – | – | – | failed to detect a modulatory effect
